# Measurements published in ChEMBL document CHEMBL4888484, “Replenishing the malaria drug discovery pipeline: Screening and hit evaluation of the MMV Hit Generation Library 1 (HGL1) against asexual blood stage Plasmodium falciparum ,using a nano luciferase reporter read-out” (2022).
# Hit rate of the full screen: of about 150,000 compounds, about 540 (0.36%) showed an effect of 50% or more. This is one part of the list.
# Tested on: Plasmodium falciparum
# Assay: Primary screen in NF54 nanoGlo assay, in single point, at 2uM, 72h; a lower Z score goes with more inhibition
# Assay type: functional, Erythrocyte
# Conditions: timepoint 72 hour
SMILES,% Inhibition [%],Z score
O=C1[C@@H]2CCCN2[C@@H](c2ccc(Cl)cc2Cl)N1c1nccs1,-11,1.87
Cc1ccc(S(=O)(=O)NCC2(C)CC(NS(=O)(=O)c3ccc(C)cc3)CC(C)(C)C2)cc1 (stereo unspecified),-33,3.86
CC(C)Cn1ncc2c1NC(=O)C[C@@H]2c1cccnc1N1CCOCC1,-2,0.31
CC(=O)c1cccc(N(CC(=O)Nc2ccc(S(=O)(=O)Nc3ccc(Cl)cc3Cl)cc2)S(C)(=O)=O)c1,3,-0.45
CCc1nc(C)cc(N2CC[C@H]3[C@H](CCC(=O)N3CCCCO)C2)n1,-14,1.29
COc1cccc(C(=O)Nc2cnc(N3CCCC3)nc2N(C)C)c1,-21,2.7
CC1CCC(C(=O)O)C(C)N1Cc1noc2c1CCCC2 (stereo unspecified),1,-0.08
COc1ccc(OC(C)C)c(NC(=O)CCNCC(F)(F)F)c1,-9,0.87
CCN1CCC(N(C)C(=O)c2ncnc3ccsc23)CC1,-5,0.83
OCc1csc(N2CCN(Cc3cc(C4CC4)n[nH]3)C[C@H](O)C2)n1,13,-1.75
Fc1cc(Cl)cc(NCc2csc(-c3ccccn3)n2)c1,-9,0.97
CCCNC(=O)N1CC[C@H](CCOc2ccccc2)C1,-1,0.16
O=C(Nc1ccc(-c2cc3cc(F)ccc3[nH]2)cc1)Nc1cccc(F)c1,-2,0.29
CCC(=O)N1CCN(c2ccc3ccc(F)cc3n2)CC1,-6,1.15
COCCOc1ccnc(-c2noc([C@@H]3CCCN3Cc3ncc[nH]3)n2)c1,34,-3.87
O=C(C[C@@H]1NC(=O)N(CCc2ccccc2)C1=O)Nc1cccc2[nH]ccc12,4,-0.46
CCCCn1nnnc1CN1C(=O)NC2(CCC(C)CC2)C1=O (stereo unspecified),-15,1.27
C[C@@H](CCC(=O)NCc1cscn1)N1CCOCC1,-3,0.54
O=C(COc1ccccc1)NC[C@@H]1CCCN(C(=O)COc2ccccc2)C1,-6,0.76
Cc1ccc(-c2nc3ccc(-c4cccc(C)c4)cn3c2CN2CCN(C(=O)c3ccco3)CC2)cc1,-14,1.88
Cc1cc(C)n(-c2ccnc(N3CCC4(CC3)OCCO4)n2)n1,-16,1.67

SMILES,% Inhibition [%],Z score
Cc1cc(C)c2nccc(N3CCN(C)[C@@H](CCO)C3)c2c1,-7,1.01
Cc1cc(F)c(CC(=O)N[C@@H]2CS(=O)(=O)C[C@H]2O)cc1F,-6,0.91
CC(C)c1nc(C(=O)Nc2[nH]c(=O)ncc2F)cs1,88,-15.46
COc1ccc(Cn2nc(C)nc2CCn2cnnn2)cc1,-3,0.59
CC[C@@](C)(CO)NC(=O)Nc1ccc(F)cc1OC(F)F,-7,1.19
CCOCCS(=O)(=O)N1CC2(CCOCC2)[C@@H]1C1CC1,-10,1.61
Cc1cc(C)nc(NS(=O)(=O)c2cc(C)oc2C)n1,-3,0.35
CCc1ccc(-c2cc(C(F)(F)F)on2)cc1S(=O)(=O)N1CCN(CC)CC1,-9,1.48
CCOc1ccc(C(=O)N[C@@H](C)c2c(C)n[nH]c2C)o1,-13,1.69
Cc1ccc(N2CCC[C@@]3(CCC(=O)N(Cc4cccnc4)C3)C2)nn1,-9,1.24
Cc1cc(C)nc(-c2cc(NCc3cccnc3)nc3[nH]ccc23)n1,-9,1.18
C=CCOc1ccc(CN(C[C@H]2CCCO2)C(=O)c2c(C)noc2C)cc1OC,-6,0.72
O=S(=O)(Cc1cccc2nsnc12)N[C@@H]1CCCOC1,-5,1.07
CC1=C(C(=O)NCc2cnc3c(c2)CCC3)[C@H](c2cccc(C)c2)NC(=O)N1,-20,2.66
Cc1noc([C@H]2OCC[C@H]2NC(=O)c2ccccc2C2(C)CC2)n1,-4,0.7
O=C([C@@H]1CCCc2[nH]ncc21)N1CC=C(c2c[nH]c3ccccc23)CC1,-6,0.75
CN1CC[C@H](CN(C)Cc2ccc3cc(O)ccc3c2)C1,56,-7.71
Cn1cc(CN(Cc2ccccc2OCc2c(F)cccc2Cl)C2CC2)cn1,-7,0.91
C[C@@H]1C[C@H](Nc2ccccc2)c2ccccc2N1C(=O)Cc1cccc2ccccc12,-6,0.82
Cc1cc(C(C)C)nc(N2CCN(C(=O)CCn3cncn3)CC2)n1,-15,2.34
CC(C)C(=O)N1CCN(C(=O)Cc2cccc(O)c2)[C@@H]2CS(=O)(=O)C[C@@H]21,8,-1.16

SMILES,% Inhibition [%],Z score
COc1ccc2c(C)c(C(=O)N3CCC(Nc4ncccn4)CC3)oc2c1,0,0.04
CCCN1C(=O)c2c(C(=O)Nc3cccc(Cl)c3)ncn2C[C@@]1(C)C(=O)NC1CCCC1,-15,2.87
CCOc1cc(C(=O)N(Cc2cccnc2)Cc2ccco2)cc(OCC)c1OCC,6,-0.81
COc1ccc(N2C(=O)c3cc(C)nn3C[C@@]2(C)C(=O)NCc2ccc(F)cc2)cc1,-4,0.7
Cc1cnc(NCCc2n[nH]c(N)n2)nc1N(C)C,-5,0.68
CN(CCC1CCCC1)c1cccc(CO)c1,-14,1.77
COc1ccc(NC(=O)[C@@H]2CCCC[C@@H]2C(=O)N2CCCC2)c2nonc12,0,-0.03
CNc1ccnc(N2CCN(Cc3cccnc3N)C[C@H](O)C2)n1,11,-1.49
Cc1cccc(C(=O)Nc2ccccc2N2CCOCC2)n1,-4,0.49
COC(=O)CC[C@@H]1CN(Cc2ccncc2)CC[C@@H]1N1CCN(c2cccc(C(F)(F)F)c2)CC1,-25,2.31
CCCC1CCC(CN(C)CC(=O)O)CC1 (stereo unspecified),-5,0.42
Cc1nc(CCNC(=O)N2C[C@H]3C[C@H](O)[C@@H](O)C[C@H]3C2)sc1Cl,5,-0.55
Cc1ccsc1CN(C)CCn1cnnc1C,-9,1.55
COc1ccc(CN2CCN(CC3CCC3)CC2)c(OC)c1OC,-12,1.64
CC(C)CCc1nnc(NCc2cccc3cn[nH]c23)o1,25,-3.15
CC(C)OCCCNC(=O)N1CCC[C@]1(C)CO,-5,0.88
Cc1cc(N2CCN(c3ccccc3Cl)CC2)n2cc(-c3ccccc3)nc2n1,5,-0.73
COc1ccc(NC(=O)c2c(NC(=O)c3ccncc3)sc3c2CC[C@H](C(C)(C)C)C3)cc1,0,-0.01
Cc1cnc(NCC(C)(C)N2CCCC2)nc1N(C)C,-4,0.77
COc1cccc(F)c1[C@H](C)NCC(=O)N1CCC(C)CC1,-1,0.18
COCC(=O)NCCc1ccc(C)c(OC)c1,-7,1.13

SMILES,% Inhibition [%],Z score
CC(C)(CNC(=O)[C@@H]1CCC(=O)N1)C1=CCCC1,40,-5.79
COC(=O)[C@@H](NCc1ccc(C)cc1)C(C)(C)C,0,-0.02
CCC(CC)NC(=O)COc1ccc(C)cc1,13,-1.67
C[C@]1(COc2ccncc2)CCCN(Cc2ccc(Cl)c(F)c2)C1,-5,0.8
O=C(O)[C@@H]1CCCN1C(=O)[C@H](Cc1ccccc1)NC(=O)[C@H](Cc1ccccc1)n1c(O)nc2ccccc2c1=O,-7,0.82
OC1CCC(Nc2nc(-c3ccccn3)nc3c2CCC3)CC1 (stereo unspecified),32,-3.61
Cc1sc(-c2nc(C(C)C)cs2)cc1S(=O)(=O)NCc1ccc(N(C)C)cc1,-6,0.7
CCNc1ccc(C(=O)OCC)cc1NC(=O)CC(C)(C)C#N,-6,1.07
Cc1ccc(CN2CC(CN(CC(C)C)C(=O)c3ccccc3)C(c3ccc(F)cc3)C2)cc1 (stereo unspecified),-7,1.26
COc1cc(NC(=O)N[C@@H](C)c2c(C)nn(C)c2C)cc(-n2cnnn2)c1,5,-0.72
CC(C)N1CCCC[C@@H]1COc1ccc(CCO)cc1,5,-0.87
Cn1ncc(C(=O)Nc2nnc(C3CC3)n2C)c1C(F)F,-3,0.4
COC[C@]1(C)NC(=O)N(Cc2nc(C)c(C)s2)C1=O,14,-1.79
Cc1cc(NC(=O)CN2CCN(S(=O)(=O)c3cc(F)ccc3F)CC2)ccc1N1CCCC1,-5,0.68
C#CCN1CCC(N2CC(=O)N(c3ccccc3)C2=O)CC1,-5,0.57
CC(C)(C)OC(=O)NCCc1nnc2n1CCCC2,0,0.01
CN(CCN1CCOCC1)c1nnc(-c2ccccc2)s1,-13,2.61
Cc1ccc([C@H](CNC(=O)c2ccc(Br)cc2)N2CCCCC2)o1,4,-0.61
CCN1CCN(S(=O)(=O)c2cc(-c3nc(-c4cccc(F)c4)no3)sc2C)CC1,-4,0.59
COc1ccc(N2C(=O)N[C@@](NC(=O)c3cccc(Cl)c3)(C(F)(F)F)C2=O)cc1,-7,0.65
